Measured values reported in ChEMBL document CHEMBL4888484, “Replenishing the malaria drug discovery pipeline: Screening and hit evaluation of the MMV Hit Generation Library 1 (HGL1) against asexual blood stage Plasmodium falciparum ,using a nano luciferase reporter read-out” (2022).
Screen size: about 150,000 compounds; about 540 (0.36%) showed an effect of 50% or more. The list shows a part of the results.

system: Plasmodium falciparum; assay: Primary screen in NF54 nanoGlo assay, in single point, at 2uM, 72h; a lower Z score goes with more inhibition; assay type: functional, Erythrocyte; conditions: timepoint 72 hour

| Compound | % Inhibition [%] | Z score |
| --- | --- | --- |
| C#CCn1cc(CNc2nc(CC(C)C)ns2)cn1 | -23 | 2.68 |
| Cc1nc([C@H](C)n2ccnc2-c2cc(C(C)(C)C)[nH]n2)cs1 | -9 | 1.17 |
| CC(=O)C[C@H](C)NC(=O)c1cncc(C)c1 | -14 | 2.3 |
| COCCN1[C@@H]2CCN(Cc3ccccc3C#N)C[C@@]2(C(=O)N2CCOCC2)CCS1(=O)=O | -9 | 1.34 |
| Cc1cccc(-c2nc(-c3cccnc3)nn2C2CCN(C)CC2)n1 | -6 | 0.98 |
| N=C(NOS(=O)(=O)c1ccc(Cl)cc1)c1ccncc1 | -6 | 0.83 |
| O=C(C1CCCC1)N1CCCC[C@H]1c1noc(COCc2ccccc2)n1 | -5 | 0.66 |
| O=C(Nc1ccccc1-n1cncn1)[C@@H]1CC=CCC1 | 4 | -0.58 |
| Cc1cccc(CCNc2nc3c(s2)c(C)nn3C)n1 | -1 | 0.25 |
| Cc1ccc2ncnc(N3CCS(=O)(=O)C[C@@H](C)C3)c2c1 | -9 | 0.97 |
| Cc1nn(C2CCS(=O)(=O)C2)c2c1C(c1cccc(OC(F)F)c1)CC(=O)N2 (stereo unspecified) | -13 | 1.63 |
| O=C(NCc1ccc(C2CC2)nc1)c1ccc(F)cc1 | -4 | 0.48 |
| CCc1ccccc1NC(=O)CN(C)CC(=O)Nc1cc(C(C)(C)C)no1 | -5 | 0.4 |
| CCOc1cccc(C(=O)N2CC3CN(c4ccccc4)CC3C2)c1 (stereo unspecified) | 6 | -1.22 |
| CC(C)(C)c1nsc(NCC2(C(N)=O)CCOCC2)n1 | -13 | 1.5 |
| c1ccc2oc(N[C@H]3COC[C@@H]3N3CCCC3)nc2c1 | 2 | -0.32 |
| COCCN1CCC[C@@H]1CNC(=O)Nc1cccc(F)c1 | -2 | 0.23 |
| CC[C@H](C)[C@@H](C(=O)Nc1nc(CC(=O)NC)cs1)n1cnnn1 | -11 | 1.41 |
| O=C(c1nccs1)c1cccnc1N1CCn2nc(CO)cc2C1 | -2 | 0.31 |
| CC(C)(C)c1nnc([C@H]2CCN(Cc3ncc[nH]3)C2)o1 | -9 | 1.38 |
| CC1(C)Cc2cccc(OCC(=O)N3CCN(C(=O)c4cnn5ccccc45)CC3)c2O1 | -7 | 1.08 |
| O=C(Nc1ccc2cncn2c1)[C@@H]1CCCCO1 | -10 | 1.11 |

| Compound | % Inhibition [%] | Z score |
| --- | --- | --- |
| CCc1nnc(CN(C)c2ccccc2N(C)C)n1C | 1 | -0.09 |
| COC(=O)[C@@H]1CN(Cc2ncc(-c3ccccc3C)o2)CCO1 | -10 | 1.03 |
| COc1cn(C)nc1[C@H](C)Nc1cnccn1 | 9 | -1.09 |
| CC(C)(C)NC(=O)NC[C@@H]1OCCc2sccc21 | -12 | 1.21 |
| Cc1cc(-c2cc(S(=O)(=O)N3C[C@@H]4CC[C@H]3CN(C)C4)c(C)s2)[nH]n1 | -10 | 0.96 |
| N#Cc1ncn(CC(=O)N(C2CCCC2)C2CC2)n1 | -3 | 0.6 |
| CC[C@H]1CN(C(=O)c2cccc(N)n2)CCO1 | -4 | 0.51 |
| CC[C@H]1CCCCN1C(=O)c1cnn(-c2nccc(-c3cccs3)n2)c1COC | 11 | -1.45 |
| CS(=O)(=O)c1cnn(C[C@H](O)c2ccc(F)c(F)c2)c1 | -1 | 0.14 |
| CC(C)CN(C1CCN(C)CC1)C1CN(C(=O)COCc2ccccc2)C1 | -9 | 1.15 |
| O=C(N[C@@H]1CN(C(=O)C2CCC2)C[C@H]1CO)c1ccccc1 | -8 | 1.44 |
| O=C(Nc1ccc2c(c1)OCCO2)N1Cc2ccccc2Oc2ncccc21 | -13 | 1.7 |
| CN(CCO)Cc1nnc(C2CCN(C(=O)c3cc(C4CC4)n[nH]3)CC2)n1C | -7 | 1.02 |
| Cc1cc(C(=O)Nc2nc(-c3cc(C(N)=O)oc3C)cs2)no1 | -10 | 1.46 |
| O=C1C[C@@H](c2ccccc2)N(C(=O)Cc2ccc(F)c(F)c2)CCN1 | -12 | 1.63 |
| N#Cc1ncn(CCC2=CCCCC2)n1 | -5 | 0.73 |
| Cc1cc(N(C)C)nc(CNC(=O)c2cccnc2)n1 | 3 | -0.4 |
| Cc1ccc(NC(=O)CCCc2nc3cccnc3n2C2CCCCC2)cc1 | 1 | -0.21 |
| CCN(C(=O)C1=NN(c2ccccc2)[C@H](C(N)=O)C1)c1ccccc1 | 4 | -0.64 |
| Cc1cc(C)c(CNC(=O)c2cncc3ccccc23)c(=O)[nH]1 | -11 | 1.48 |
| c1ccc(CNCCN2CCCC3CCCC32)cc1 (stereo unspecified) | -1 | 0.11 |
